In article PMC4336329 (PLoS ONE, 2015):
The campaign covered roughly 310,000 compounds. About 14,000 (4.5%) showed an effect of 50% or more. Effects have a minus sign here. The list shows a part of the results.

Molecular target: human ether-à-go-go-related gene (hERG) potassium channel (human, UniProt Q12809)
Assay: primary screen, population patch clamp on CHO cells stably expressing hERG
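Note: peak tail current of the secondary pulse compared with the same well before compound.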

Chain of human ether-à-go-go-related gene (hERG) potassium channel (Q12809 whole entry, looked up): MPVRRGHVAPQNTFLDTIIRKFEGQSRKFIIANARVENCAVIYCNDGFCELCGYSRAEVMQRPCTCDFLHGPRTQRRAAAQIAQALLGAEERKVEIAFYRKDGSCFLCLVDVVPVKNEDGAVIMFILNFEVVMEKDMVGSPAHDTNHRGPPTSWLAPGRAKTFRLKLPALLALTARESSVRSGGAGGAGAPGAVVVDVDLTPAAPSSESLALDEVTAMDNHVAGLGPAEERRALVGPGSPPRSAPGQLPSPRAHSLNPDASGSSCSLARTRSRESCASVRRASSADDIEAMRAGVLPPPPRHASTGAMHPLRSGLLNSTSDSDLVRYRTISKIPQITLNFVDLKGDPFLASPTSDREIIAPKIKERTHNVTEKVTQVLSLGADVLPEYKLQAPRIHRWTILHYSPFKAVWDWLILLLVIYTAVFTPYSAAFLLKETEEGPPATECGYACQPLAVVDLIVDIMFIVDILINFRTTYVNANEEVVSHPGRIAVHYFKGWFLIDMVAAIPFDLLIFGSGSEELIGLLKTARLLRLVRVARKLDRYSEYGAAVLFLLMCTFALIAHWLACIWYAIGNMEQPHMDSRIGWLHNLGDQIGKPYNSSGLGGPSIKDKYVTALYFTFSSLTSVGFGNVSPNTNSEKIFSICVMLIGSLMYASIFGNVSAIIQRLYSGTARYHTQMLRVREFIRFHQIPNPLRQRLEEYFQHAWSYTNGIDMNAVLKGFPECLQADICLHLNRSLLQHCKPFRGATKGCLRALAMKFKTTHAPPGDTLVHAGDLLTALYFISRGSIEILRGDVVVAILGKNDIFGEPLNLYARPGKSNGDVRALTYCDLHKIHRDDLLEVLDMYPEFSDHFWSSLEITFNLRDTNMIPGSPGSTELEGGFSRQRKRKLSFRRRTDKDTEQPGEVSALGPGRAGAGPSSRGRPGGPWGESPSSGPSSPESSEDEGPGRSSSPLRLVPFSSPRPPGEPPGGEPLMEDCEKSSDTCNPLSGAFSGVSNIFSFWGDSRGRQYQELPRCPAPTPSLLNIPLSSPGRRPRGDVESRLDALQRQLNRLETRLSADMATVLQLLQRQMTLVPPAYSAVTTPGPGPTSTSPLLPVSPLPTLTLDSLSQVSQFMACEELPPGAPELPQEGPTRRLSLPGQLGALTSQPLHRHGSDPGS

Structure (SMILES)	hERG current change (%, negative = inhibition) at 10uM [%]
CCCCn1c(=N)n(CC(O)c2ccccc2)c2ccccc21.Cl (stereo not shown)	-64.9
Cc1cccc(C(=O)O/N=C(\N)Cc2cccc3ccccc23)c1	-3.19
COc1ccccc1N1CCN(S(C)(=O)=O)CC1	2.03
COc1ccc(NC(=O)CCc2nnc3ccc(N4CCN(c5cccc(OC)c5)CC4)nn23)cc1	-22.8
COc1ccc(C2=NCC(CSc3nnnn3C)S2)cc1 (stereo not shown)	-2.23
O=C(c1ccc2c(c1)OCO2)C1CCCN(Cc2ccc(OC(F)F)cc2)C1 (stereo not shown)	-85.7
Cc1ccccc1CNC(=O)C(=O)NCC1CCCN1S(=O)(=O)c1ccccc1 (stereo not shown)	-32.2
Cc1cc(C(F)(F)F)n2[nH]c(=O)c(N=Nc3ccccc3)c2n1	18.6
C[C@@H]1CC[C@]2(C(=O)O)CC[C@]3(C)C(=CCC4[C@]56CC[C@@](O)(OC5)C(C)(C)C6CC[C@]43C)C2[C@H]1C (stereo partly shown)	-0.834
CCOc1ccccc1Nc1nc(N)nc(CN(C)C2CCCCC2)n1	-76.1
Oc1ccc(/C=N/Nc2ccccc2)cc1	0.596
COc1ccc(CNC(=O)CSc2n[nH]c(N)n2)cc1	20.1
COc1ccc(CCNC(=O)COC(=O)C2COc3ccccc3O2)cc1 (stereo not shown)	-0.23
CCOC(=O)c1c(C)[nH]c(C(=O)Nc2cc(OCC)c(N3CCOCC3)cc2OCC)c1C	9.42
CC1CCN(C2=NC(=O)/C(=C/c3cccc(O)c3)S2)CC1	-18.5
CCOC(=O)NC(=O)COC(=O)CCCSc1nc2ccccc2s1	-12.9
CN(CC(=O)Nc1ccc(Cl)cc1)C(=O)CCc1c[nH]c2ccccc12	-43
CCN1C(=O)[C@H]2[C@@H](c3ccc(-c4ccc(OC)cc4)cc3)N[C@@](C)(C(=O)OC)[C@H]2C1=O.O=C(O)C(F)(F)F	7.02
Cc1cc(C)c(OCC(=O)OCC(=O)NCCC2=CCCCC2)c(C)c1	12.2
CN(C)CCCNC(=O)c1cc(S(=O)(=O)N2CCOCC2)ccc1F	-5.17
CCN1CCN(C2=C(NS(=O)(=O)c3ccc(C)cc3)C(=O)c3ccccc3C2=O)CC1	-57.1
CNC(=O)NC(=O)CSc1nnc(-c2ccc(F)cc2)n1CC1CCCO1 (stereo not shown)	6.46
c1ccc(CNc2nc(-c3cccnc3)nc3ccccc23)cc1	-23.4
Cc1cc(OCC(=O)OCC(=O)c2c(N)n(C)c(=O)n(C)c2=O)ccc1Cl	5.74
COc1ccc(/C=N/NC(=O)c2cc(OC)c(OC)c(OC)c2)cc1CN1CCc2cc(OC)c(OC)cc2C1C (stereo not shown)	-73.4
COc1ccc(-c2noc(Cc3cccs3)n2)cc1	-3.62
C/C(=N\O)C(=O)NCCCn1ccnc1	17.2
CCOC(=O)CNC(=O)c1cc2c(=O)[nH]c3ccc(C)cc3c2s1	9.18

Structure (SMILES)	hERG current change (%, negative = inhibition) at 10uM [%]
CN(C)/C=N/C(=S)Nc1cc(Cl)cc(Cl)c1	27.2
Cc1cccc(C)c1NC(=O)CS(=O)CC(=O)N1CCN(c2ccccc2)CC1 (stereo not shown)	15.8
Cc1ccccc1CS(=O)(=O)Cc1ccc(C(=O)N2CCC3(CC2)OCCO3)o1	8.72
CN(CC(=O)Nc1cc([N+](=O)[O-])ccc1Cl)Cc1ccc(Br)cc1	-17
CCCCCCCCCCCCC/C=C/[C@@H](O)[C@@H](N)CO	14.2
O/N=C\c1ccc(-c2ccccc2)o1	-4.28
O=C(C1CCC(Cn2c(=S)[nH]c3ccccc3c2=O)CC1)N1CCN(c2ccccc2)CC1 (stereo not shown)	11.7
COc1ccc(CCNC(=O)CCCCn2c(=O)[nH]c3ccccc3c2=O)cc1OC	12.7
CCOc1ccc(/C(O)=C2/C(=O)C(=O)N(CCOCCO)C2c2ccccn2)cc1 (stereo not shown)	-4.07
Cc1nn2c(-c3ccc(Cl)cc3)nnc2s1	-29.6
C=C1CCN([C@@H](C)C(=O)OCc2ccc(C)cc2)S(=O)(=O)c2ccccc21	-15.5
Clc1ccc(-n2cccc2)cn1	5.35
CCO[C@H]1OC(C(=O)N2CCN(Cc3ccc4c(c3)OCO4)CC2)=C[C@@H](c2ccc(C(F)(F)F)cc2)[C@@H]1CCCO	-24.7
O=C(Cc1cccs1)Nc1nc2c(s1)CCCC2	-6.72
Cc1ccc(C)c(NC(=O)c2ccc(N(C)S(C)(=O)=O)cc2)c1	-5.18
Cc1cc(C)cc(NC(=S)N2CCN(c3ccccn3)CC2)c1	-1.07
Cc1nc(NC(=O)CSc2nc3cccnc3n2C2CCCCC2)sc1C	11.6
O=C1CC(c2ccccc2)CC(O)=C1C=NCc1ccco1 (stereo not shown)	-15.3
Cc1ccc(S(=O)(=O)N(C)C)cc1NC(=O)CCc1ccccc1	-26.3
C=CCn1c(=O)c2c(nc(-n3nc(C)cc3C)n2C)n(C)c1=O	22
Cn1c(=O)[nH]c(=O)c2c1nc(NCCCO)n2CCOc1ccccc1	-38
O=C(Cn1ccc(C(F)(F)F)n1)N/N=C/c1ccc2c(c1)OCO2	-4.87
Cc1ccc(S(=O)(=O)Nc2ccccc2C(=O)N2CCCCC2)cc1	-12.5
CCC1(C)Cc2ccccc2-c2c1c(=O)n(Cc1ccccc1)c1nnnn21 (stereo not shown)	-3.55
O=C(Cn1ncc2c(=O)oc3ccccc3c21)NCCN1CCN(c2ccccc2F)CC1	-28.4
CCCC(C)c1nnc(NC(=O)CN2C(=O)c3ccccc3C2=O)s1 (stereo not shown)	7.6
CCOC(=O)c1c(NC(=O)COC(=O)Cc2ccccc2[N+](=O)[O-])sc(C(=O)N(C)C)c1C	-68.9
